This note sets out measurements from PubChem BioAssay AID463173 (ICCB-Longwood Screening Facility, Harvard Medical School, 2010).

“And” between values parts separate entries of the source, which are not always exact repeats. Equal values may be shown once. Screen size: about 52,000 compounds; about 1,700 (3.3%) were called active. Cut-off read from the data, not from the text of the source: active = survival mostly below about 52% (no sharp cut-off); inactive = mostly above about 56%. The list shows a part of the results.

The test system of this experiment is Wild type. As to the kind of experiment: growth inhibition of S. aureus wild type versus tarO mutant, primary screen, teichoic acid synthesis inhibitors, RN4220, OD600 (AID 463173). The note with it: S. aureus RN4220 wild type/DeltatarO growth, OD600, 18 h, stronger effect = lower value, screened at 18.75 µg/mL (by protocol).
For `Cc1cccn2c(=O)cc(COc3ccc(NC(=O)C(C)C)cc3)nc12`, the survival was inactive: 76%.

`Cc1ccc(-n2nc(C)c3c(C)cc(=O)n(CC(=O)Nc4cc(Cl)ccc4C)c32)cc1`: the survival is inactive: 140%.

In the case of `Nc1ccc2oc(-c3ccccc3Br)nc2c1`, the survival was inactive: 119% and inactive: 52%.

Take `O=C(O)CSc1nnnn1C1CCCCC1`: the survival is inactive: 98%.

Regarding `Cc1ccccc1NC(=O)CSc1nc2ccc(NC(=O)CCc3ccccc3)cc2s1`, the survival was inactive: 81%.

Turning to `COC(=O)c1sccc1S(=O)(=O)N(CC(=O)Nc1ccccc1C)c1ccc(Cl)cc1`, the survival was inactive: 134%.

As for `Cc1nc(-c2ccc(S(=O)(=O)NCc3ccc(F)cc3)cc2)co1`, the survival was inactive: 68%.

Take `COc1ccc(C(=O)NCc2nc(-c3cccc(C)c3)no2)cc1OC`: the survival was inactive: 113%.

`Cc1cc(NS(=O)(=O)c2cn(C)c(C)n2)ccc1Br`: the survival was inactive: 83%.

For `COc1cccc(C(=O)COC(=O)c2cc(-c3cccs3)nc3ccccc23)c1`, the survival was inactive: 63%.

Turning to `COCc1c(N)c(C)nc(Cl)c1C#N`, the survival was inactive: 102%.

Consider `COc1cccc(CNC(=O)CCc2c(C)nc3c4c(C)cc(C)nc4nn3c2C)c1`, for which the survival is inactive: 81%.

`Cc1ccccc1OCC(=O)Nc1nnc(SCc2cc(=O)n3cc(Cl)ccc3n2)s1`: the survival was inactive: 56%.

Consider `CCc1ccccc1NC(=O)C1CCN(c2nc3ccccc3[nH]2)CC1`, for which the survival is inactive: 80%.

For the compound `Cc1ccc(CCNc2nc3ccccc3c3nc(-c4cccnc4)nn23)cc1`, the survival was inactive: 77%.

For the compound `Cc1ccc(-n2nc(C)c(C(=O)NCCCN3CCN(c4cccc(Cl)c4)CC3)c2-n2cccc2)cc1`, the survival was active: -2%.

As for `Cc1ccc(C)c(CN2C(=O)c3ccccc3S(=O)(=O)c3ccc(C(=O)NCCc4ccc(Cl)cc4)cc32)c1`, the survival is inactive: 132%.

As to `COc1ccc(CNC(=O)CN(C(=O)c2ccc(N3CCCC3)nc2)c2ccccc2C)cc1`, the survival was inactive: 110%.

In the case of `CC(C)CCSc1nnc2n(-c3ccccc3)c(=O)c3c4c(sc3n12)CC(C)CC4` (centres undefined), the survival was inactive: 76%.

For the compound `CCOC(=O)c1c(C)[nH]c(C)c1S(=O)(=O)NCC(=O)NCc1cccc(Br)c1`, the survival is inactive: 134%.

For the compound `O=C(Nc1ccc(Oc2ccccc2)cc1)c1ccc(F)c(S(=O)(=O)N2CCN(c3ccccc3F)CC2)c1`, the survival was inactive: 72%.

Regarding `Cc1cc(C)nc(-n2nc(C)c3c2N(Cc2ccccc2C)C(=O)CC3c2ccc(Cl)cc2)n1` (centres undefined), the survival was inactive: 81%.

Consider `COC(=O)c1ccccc1N(C)S(=O)(=O)c1cc2c3c(c1)CC(=O)N3CCC2`, for which the survival was inactive: 80%.

On to `CCc1ccc(NC(=O)Cn2c(=O)nc(-c3ccccc3F)c3cc(Cl)ccc32)cc1`, for which the survival is inactive: 89%.
